Test results: publication PMC3335016, “Analysis of the Nse3/MAGE-Binding Domain of the Nse4/EID Family Proteins” (PLoS ONE, 2012)
These are yes or no findings as the source states them, for the method shown. For part of these data: Binding seen in cells or lysates may run through a third protein. Some entries that bind do so weakly or less than the wild type. For part of these data: Sequences can lack the tags named with a protein. Each block holds one molecule with its values, some of them ahead of it.

Amino acid sequences for entries named in this document (tags omitted). Residues count along the entry.
UniProt P43355: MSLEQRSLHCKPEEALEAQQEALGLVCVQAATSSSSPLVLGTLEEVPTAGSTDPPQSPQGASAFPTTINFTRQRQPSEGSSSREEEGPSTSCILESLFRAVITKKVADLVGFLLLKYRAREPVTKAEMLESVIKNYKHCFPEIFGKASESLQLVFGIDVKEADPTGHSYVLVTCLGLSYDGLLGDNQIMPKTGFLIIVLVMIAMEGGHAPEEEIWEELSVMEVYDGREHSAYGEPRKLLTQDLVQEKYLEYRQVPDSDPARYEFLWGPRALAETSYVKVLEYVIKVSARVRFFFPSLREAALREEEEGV
UniProt P43357, residues 94-314: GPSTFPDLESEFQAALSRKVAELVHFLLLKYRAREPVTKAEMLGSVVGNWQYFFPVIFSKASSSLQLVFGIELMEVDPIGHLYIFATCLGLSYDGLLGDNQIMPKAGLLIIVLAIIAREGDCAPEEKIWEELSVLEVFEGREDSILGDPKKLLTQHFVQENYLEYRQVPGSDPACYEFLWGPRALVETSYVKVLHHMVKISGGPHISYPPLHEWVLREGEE

What was measured:
[1] = target: T1, EID2 WT peptide (aa 197-217) (human); assay: pull-down; biotin-tagged EID2 peptides pre-bound to streptavidin-agarose beads; in vitro expressed proteins in 200 µl PBS, 2 h at 4°C; phosphorimaging; only the target purified
T1 sequence (peptide, biotin, linked via the SGSG spacer): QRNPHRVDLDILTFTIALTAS

[2] = target: T2, GST-His-S-tagged EID1(aa146-177) (human) (UniProt Q9Y6B2); assay: pull-down; GST-His-S fusion protein extracts pre-incubated with S-protein agarose beads; in vitro translated MAGE proteins added in 200 µl HEPES buffer, overnight; autoradiography; only the target purified
T2 sequence: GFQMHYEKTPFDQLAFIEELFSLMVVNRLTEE

[3] = target: T3, GST-His-S-tagged EID2b(aa135-161) (human) (UniProt Q96D98); assay: as above
T3 sequence: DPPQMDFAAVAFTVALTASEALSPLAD

[4] = target: T4, GST-His-S-NSE4b(106-135) (human); assay: as above
T4 sequence: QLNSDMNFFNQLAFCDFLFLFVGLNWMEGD

[5] = target: T5, GST-His-S-tagged EID2(aa197-225) (human); assay: as above
T5 sequence: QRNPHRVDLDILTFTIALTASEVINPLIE

[6] = target: T6, GST-His-S-tagged NSE4a(aa150-179) (human) (UniProt Q9NXX6); assay: as above
T6 sequence: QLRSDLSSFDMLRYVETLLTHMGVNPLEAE

EID2 peptide #13 (human) = target: T7, EID2 peptide #13 (human); assay: ELISA; ELISA of EID2 peptides with MAGEA3(94-314) protein; unpublished data
T7 sequence (peptide, biotin, linked via the SGSG spacer): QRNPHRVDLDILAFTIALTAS

EID2 peptide #11 (I207A) = target: T8, EID2 peptide #11 (I207A) (human, I207A (stands in the printed letters), biotin, linked via the SGSG spacer); assay: as above
T8 construct: source: synthetic peptide (Mimotopes)
T8 peptide: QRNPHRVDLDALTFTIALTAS

[7] = target: T1, EID2 WT peptide (aa 197-217) (human); assay: as above
EID2 peptide #1 (Q197A) [8] = target: T9, EID2 peptide #1 (Q197A) (human, Q197A (stands in the printed letters), biotin, linked via the SGSG spacer); assay: as above
T9 construct: source: synthetic peptide (Mimotopes)
T9 peptide: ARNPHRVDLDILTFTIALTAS

EID2 peptide #12 (L208A) = target: T10, EID2 peptide #12 (L208A) (human, L208A (stands in the printed letters), biotin, linked via the SGSG spacer); assay: as above
T10 construct: source: synthetic peptide (Mimotopes)
T10 peptide: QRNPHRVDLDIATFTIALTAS

EID2 peptide #15 (human) = target: T11, EID2 peptide #15 (human); assay: as above
T11 sequence (peptide, biotin, linked via the SGSG spacer): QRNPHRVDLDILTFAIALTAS

EID2 peptide #3 (human) = target: T12, EID2 peptide #3 (human); assay: as above
T12 sequence (peptide, biotin, linked via the SGSG spacer): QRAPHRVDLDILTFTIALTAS

EID2 peptide #18 (T215A) = target: T13, EID2 peptide #18 (T215A) (human, T215A (stands in the printed letters), biotin, linked via the SGSG spacer); assay: as above
T13 construct: source: synthetic peptide (Mimotopes)
T13 peptide: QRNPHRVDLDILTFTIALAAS

EID2 peptide #9 (L205A) = target: T14, EID2 peptide #9 (L205A) (human, L205A (stands in the printed letters), biotin, linked via the SGSG spacer); assay: as above
T14 construct: source: synthetic peptide (Mimotopes)
T14 peptide: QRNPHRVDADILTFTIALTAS

[9] = target: T15, EID2 peptide #8 (D204A) (human); assay: as above
T15 sequence (peptide, biotin, linked via the SGSG spacer): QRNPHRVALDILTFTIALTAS

EID2 peptide #5 (human) = target: T16, EID2 peptide #5 (human); assay: as above
T16 sequence (peptide, biotin, linked via the SGSG spacer): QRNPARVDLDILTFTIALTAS

EID2 peptide #4 (human) = target: T17, EID2 peptide #4 (human); assay: as above
T17 sequence (peptide, biotin, linked via the SGSG spacer): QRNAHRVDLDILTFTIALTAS

EID2 peptide #10 (D206A) = target: T18, EID2 peptide #10 (D206A) (human, D206A (stands in the printed letters), biotin, linked via the SGSG spacer); assay: as above
T18 construct: source: synthetic peptide (Mimotopes)
T18 peptide: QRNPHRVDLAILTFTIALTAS

EID2 peptide #7 (human) = target: T19, EID2 peptide #7 (human); assay: as above
T19 sequence (peptide, biotin, linked via the SGSG spacer): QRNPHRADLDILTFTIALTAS

EID2 peptide #19 (S217A) = target: T20, EID2 peptide #19 (S217A) (human, S217A (stands in the printed letters), biotin, linked via the SGSG spacer); assay: as above
T20 construct: source: synthetic peptide (Mimotopes)
T20 peptide: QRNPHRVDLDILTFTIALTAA

[10] = target: T21, His-MBP-tagged Nse3(200-307) (S. pombe) (UniProt Q9Y7U4); assay: pull-down; His-MBP-Nse3(200-307) extract pre-bound to amylose resin; in vitro translated Nse4 fragments added in 200 µl HEPES buffer, overnight; autoradiography; only the target purified
T21 sequence: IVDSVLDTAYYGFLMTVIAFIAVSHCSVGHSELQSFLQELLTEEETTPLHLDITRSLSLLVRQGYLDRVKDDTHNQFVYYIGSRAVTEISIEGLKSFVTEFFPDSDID

EID2 peptide #1 (Q197A) [11] = target: T9, EID2 peptide #1 (Q197A); assay: pull-down; biotin-tagged EID2 peptides pre-bound to streptavidin-agarose beads; in vitro expressed proteins in 200 µl PBS, 2 h at 4°C; phosphorimaging; only the target purified
EID2 peptide #2 (R198A) = target: T22, EID2 peptide #2 (R198A) (human, R198A (stands in the printed letters), biotin, linked via the SGSG spacer); assay: as above
T22 construct: source: synthetic peptide (Mimotopes)
T22 peptide: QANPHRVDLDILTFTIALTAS

[12] = target: T1, EID2 WT peptide (aa 197-217) (human); assay: pull-down; as a6 with in vitro expressed MAGEC2(129-339); data not shown; only the target purified

Molecule: MAGEA1 (aa 1-309) (from UniProt P43355 1-309)
binding [1]: binds | binding [2]: binds | binding [3]: binds | binding [4]: binds | binding [5]: binds | binding [6]: binds

Molecule: MAGEA3(94-314) protein (from UniProt P43357 94-314) (domain or fragment)
binding (EID2 peptide #13 (human)): binds | binding (EID2 peptide #11 (I207A)): binds | binding [7]: binds | binding (EID2 peptide #1 (Q197A) [8]): binds | binding (EID2 peptide #12 (L208A)): binds | binding (EID2 peptide #15 (human)): binds | binding (EID2 peptide #3 (human)): binds | binding (EID2 peptide #18 (T215A)): binds | binding (EID2 peptide #9 (L205A)): binds | binding [9]: binds | binding (EID2 peptide #5 (human)): binds | binding (EID2 peptide #4 (human)): binds | binding (EID2 peptide #10 (D206A)): binds | binding (EID2 peptide #7 (human)): binds | binding (EID2 peptide #19 (S217A)): binds

B3: MAGEC2 (aa 6-373) (protein, UniProt Q9UBF1 6-373)
chain: GVPFRNVDNDSPTSVELEDWVDAQHPTDEEEEEASSASSTLYLVFSPSSFSTSSSLILGGPEEEEVPSGVIPNLTESIPSSPPQGPPQGPSQSPLSSCCSSFSWSSFSEESSSQKGEDTGTCQGLPDSESSFTYTLDEKVAELVEFLLLKYEAEEPVTEAEMLMIVIKYKDYFPVILKRAREFMELLFGLALIEVGPDHFCVFANTVGLTDEGSDDEGMPENSLLIIILSVIFIKGNCASEEVIWEVLNAVGVYAGREHFVYGEPRELLTKVWVQGHYLEYREVPHSSPPYYEFLWGPRAHSESIKKKVLEFLAKLNNTVPSSFPSWYKDALKDVEERVQATIDTADDATVMASESLSVMSSNVSFSE
binding [1]: binds | binding [4]: binds

B5: MAGED4b (aa 1-741) (protein, UniProt Q96JG8 1-741)
chain: MAEGSFSVQSESYSVEDMDEGSDEVGEEEMVEGNDYEEFGAFGGYGTLTSFDIHILRAFGSLGPGLRILSNEPWELENPVLAQTLVEALQLDPETLANETAARAANVARAAASNRAARAAAAAARTAFSQVVASHRVATPQVSGEDTQPTTYAAEAQGPTPEPPLASPQTSQMLVTSKMAAPEAPATSAQSQTGSPAQEAATEGPSSACAFSQAPCAREVDANRPSTAFLGQNDVFDFTQPAGVSGMAFPRPKRPAPAQEAATEGPSAASGVPQTGPGREVAATRPKTTKSGKALAKTRWVEPQNVVAAAAAKAKMATSIPEPEGAAAATAQHSAEPWARMGGKRTKKSKHLDDEYESSEEERETPAVPPTWRASQPSLTVRAQLAPRPPMAPRSQIPSRHVLCLPPRNVTLLQERANKLVKYLMIKDYKKIPIKRADMLKDVIREYDEHFPEIIERATYTLEKKFGIHLKEIDKEEHLYILVCTRDSSARLLGKTKDTPRLSLLLVILGVIFMNGNRASEAVLWEALRKMGLRPGVRHPFLGDLRKLITDDFVKQKYLEYKKIPNSNPPEYEFLWGLRARHETSKMRVLRFIAQNQNRDPREWKAHFLEAVDDAFKTMDVDMAEEHARAQMRAQMNIGDEALIGRWSWDDIQVELLTWDEDGDFGDAWARIPFAFWARYHQYILNSNRANRRATWRAGVSSGTNGGASTSVLDGPSTSSTIRTRNAARAGASFFSWIQHR
binding [4]: binds

B6: Nse4(1-77) fragment (domain or fragment, UniProt Q6BDR8 1-77)
chain: MSSIDKRDLRKRYRNLINKVQESRLELVDEENNNLYETITTANDLFSSVDAPTEATLDALLLTKTVDLASIKARQLH
binding [10]: no binding

Now from value to molecule:

binding [10]: binds
B1: Nse4(1-110) fragment (domain or fragment, UniProt Q6BDR8 1-110)
chain: MSSIDKRDLRKRYRNLINKVQESRLELVDEENNNLYETITTANDLFSSVDAPTEATLDALLLTKTVDLASIKARQLHIGRPKFNIELFTKNIKQFLNYPTSHSNVTRIQE

binding [1]: binds | binding (EID2 peptide #1 (Q197A) [11]): binds | binding (EID2 peptide #2 (R198A)): binds | binding [2]: binds | binding [3]: binds | binding [4]: binds | binding [5]: binds | binding [6]: binds
B2: necdin (aa 1-321) (protein, UniProt Q99608 1-321)
chain: MSEQSKDLSDPNFAAEAPNSEVHSSPGVSEGVPPSATLAEPQSPPLGPTAAPQAAPPPQAPNDEGDPKALQQAAEEGRAHQAPSAAQPGPAPPAPAQLVQKAHELMWYVLVKDQKKMIIWFPDMVKDVIGSYKKWCRSILRRTSLILARVFGLHLRLTSLHTMEFALVKALEPEELDRVALSNRMPMTGLLLMILSLIYVKGRGARESAVWNVLRILGLRPWKKHSTFGDVRKLITEEFVQMNYLKYQRVPYVEPPEYEFFWGSRASREITKMQIMEFLARVFKKDPQAWPSRYREALEEARALREANPTAHYPRSSVSED

binding [10]: binds
Molecule: QLHIGRPKFNIELFTKNIKQFLNYPTSHSN (domain or fragment) [Nse4(75-104) fragment]

binding [12]: binds
B4: in vitro expressed MAGEC2(129-339) (domain or fragment, UniProt Q9UBF1 129-339)
chain: GLPDSESSFTYTLDEKVAELVEFLLLKYEAEEPVTEAEMLMIVIKYKDYFPVILKRAREFMELLFGLALIEVGPDHFCVFANTVGLTDEGSDDEGMPENSLLIIILSVIFIKGNCASEEVIWEVLNAVGVYAGREHFVYGEPRELLTKVWVQGHYLEYREVPHSSPPYYEFLWGPRAHSESIKKKVLEFLAKLNNTVPSSFPSWYKDALKD
